Results on 167 variants are retold here after the RNAGym collection of RNA variant scans (doi:10.7554/elife.90254).

To fix the notation:
B1: LINE1-full (parent)
chain: UACGUAGGUGGUUUUCCCCUGAUAGUGCUAAGGGGGCCUGGAAGUUUGGACUGGGCAGAGCUCAACACAGCGUGGCAAAGUGGCUGUGGCUAGACUGCCUCUCUGGAUUCCUCGUCACUCAGCAGGGCAUCUCUGAGAGAAAUGCC

Read counts are not given, so values of variants with three or more changes are uncertain.

Variants of B1 are the subject of the data set. Briefly: self-cleavage, relative activity (ratio to wild type); higher = more cleavage; in vitro, sequencing; the parent is a self-cleaving ribozyme.
With U26A G88A U102C G139U, the self-cleavage amounted to 0.13.
In the case of G27A U87C U115C A141G it was 0.29; in that of U26A G97A U108C, 0.21; in that of U29C A31G C56U A77G U115A A138G, 0.48.
In the case of U29C A30G A117G it was 0; in that of U29C U52C A107G, 1.84.
In the case of U29C G41U U62C A64C U81C C103A it was 0.04; in that of U26C U119A A142U, 0.32; in that of U26C G89U A138G, 0.03.
For the variant U26G A94G C95A A142U, the self-cleavage was found to be 0.14.
In the case of U26C C66U U87A it was 0; in that of U26C C37U U85C G125A A129G G144A, 0.3; in that of U26G C71U U87C U100C, 0.16.
In the case of U26C G54U G83A it was 0.3; in that of U26A A57C C71U U73A U102C, 0.02.
U29C A57U A140G: the self-cleavage was found to be 0.11.
In the case of U26C A42U A140G A141G it was 0.92; in that of U26C G35U A42G, 0.91; in that of U29C U46C U104C, 0.61.
As for U26C A31G G122A, the self-cleavage came out at 0.74.
In the case of U26C A117G U130C it was 2.95; in that of U26A C68U U102C A124U U130C, 0.11; in that of U26C A31U U119C U130A, 0.69.
With U29A A59G U109A, the self-cleavage was determined as 0.06.
Turning to G27U U62C U85G, the self-cleavage amounted to 0.29.
In the case of G25U U96A C111U U130A it was 0.06; in that of U26C U39C U100C A138G, 1.78.
In the case of U26C G34A A42G it was 0.8; in that of U29C U62C A78U C98U G106U U134A, 0.01.
In the case of U26C U45C G70A it was 0.18; in that of U26G U45C U102C, 1.67.
As for U26C A59G U62A A69G A94U, the self-cleavage came to 0.
In the case of U26G A107G A117U A124G it was 0.37; in that of U26C U47C U73C, 1.84; in that of G27A A43U A94G C116U U132C, 0.17.
Turning to U29C U46C U85C U109A C110G A136U, the self-cleavage is 0.42.
Regarding U26A U39C A57U, the self-cleavage was found to be 0.03.
In the case of U26C A117C U130G it was 1.53.
In the case of C28U A78U U108C it was 1.5.
In the case of U29C U81A U119A it was 2.11.
Turning to U26C A138G A141G, the self-cleavage is 1.09.
In the case of U26C U112C A140G it was 0.91; in that of U26A U39A A107G, 0.82; in that of U26C A79U U134C, 2.79.
In the case of U29C A50G U143C it was 1.35; in that of U29C A50U G60A A124C A138G A141C, 0.03; in that of U26A G53A C103A G126U, 0.61.
In the case of U29C A64G U73A U143C it was 0.56; in that of U26C G53A A57U A136C, 0.15; in that of U26A A30U A43G A142G, 0.26.
Regarding C28U U46C U100A U104C, the self-cleavage stood at 0.69.
In the case of U26A U62A U115A it was 0.08.
In the case of U26A U85A U102A U143C it was 0.1; in that of U26C U29A A30G A42U U96C, 0.23; in that of U26C A30G U143C, 1.31.
In the case of U29C G72U A79G G97A it was 0.06.
On to C28U A65G U134C, for which the self-cleavage is 0.06.
In the case of C28U U62C U81A A121U A141G it was 0.03.
Take U26C A59G U62A A141G: the self-cleavage was 0.07.
In the case of U26A A42C U73C it was 0.32; in that of G27A A59G U143C, 0.06.
Regarding C28U A59U U96A U130C, the self-cleavage turned out to be 0.05.
U26A A69G A94G: the self-cleavage was found to be 0.
In the case of U26C U45G U109G G125U A129G A140G it was 0; in that of C28U A107G A121U, 0.87; in that of U29A G53C U130C, 1.3.
In the case of U26C A124G U130C it was 1.15; in that of U26C G33A G70U A92G, 0.07; in that of U26C U112C A121G A129G, 0.
In the case of U26A G72U U104C it was 0.69; in that of U26A A59G U102C, 0.25.
In the case of U26C A64U G89A, the self-cleavage was 0.05.
On to U26A A64G U115C, for which the self-cleavage worked out at 1.07.
Consider U26C A94G A142G, for which the self-cleavage turned out to be 0.56.
In the case of U26A U62A A141G it was 0.09; in that of U29C A57U A79U, 0.1; in that of U26C U119A U143C, 1.91.
In the case of U26C U47C U87A it was 0.04.
For U26A U52A A59G A65G G70C, the self-cleavage was 0.04.
Regarding C28G C76U A136G, the self-cleavage came out at 1.92.
In the case of G27A A59G U102C G126A it was 0; in that of U26C A92U U132C, 0.7.
For the variant U26A U39C A50G C68A, the self-cleavage was determined as 0.
In the case of U26A U85A A94G U130C it was 0.2; in that of U29C A77G U85C, 0.
In the case of U26A A94U U112C it was 0.46; in that of U26C U47G U62C, 0.27.
In the case of U29C A30U U96A it was 0.03.
In the case of U29A G32A U134A, the self-cleavage is 1.16.
In the case of U26C A50U C110U A117G C133A it was 1.01.
For the variant U26C G54C A79G G86A C99A U130C, the self-cleavage was 0.02.
In the case of U29A A67U U132A U134C G137A it was 0.2.
In the case of U26G C76U A107G U143A, the self-cleavage amounted to 2.47.
In the case of U29C U104A A142G it was 1.32; in that of U26C A59U A121G, 1.56; in that of U29C G34U A141G A142G, 1.91.
In the case of U26C U102C A129U it was 1.31; in that of U26A U85A A117G U134C, 0.
In the case of U29A U45G A69G it was 0; in that of U26A C51U U81G U108C U112A, 2.51; in that of C28G A69G U102C, 0.
For the variant U26C C63U A69G A77G U109A U112A U119C, the self-cleavage came to 0.29.
As to U26C G36U A94G U109A A121C A136C, the self-cleavage amounted to 0.41.
In the case of U26C G40A U96A it was 0.04; in that of C28U G35A U143A, 0.32.
In the case of U26C U96C A140G it was 0; in that of U26C C37G U119A A129U U130C, 1.68; in that of U26C G74U U104A U109G U132A, 0.24.
Take U26A U73C U132C: the self-cleavage amounted to 1.25.
In the case of U26A U73A A140G it was 0.54.
In the case of U29C G70A A77G U112C it was 0.24; in that of U26C A79U U108C A129G, 1.67.
For the variant U29C U96C A117U, the self-cleavage was 0.11.
In the case of U26G A43G A138U it was 1.47; in that of G27U U102A U134C A136G, 1; in that of U29C A65G U85A, 0.09.
In the case of U26A A117U U119C A124G A142G it was 1.07.
In the case of U26A U46C A79U, the self-cleavage stood at 2.38.
In the case of U29C A69G A136G it was 0.97; in that of G25U U112C A136U, 1.09.
In the case of U26C U46A G55A A142G it was 0.2; in that of U29C A77U U85C G122A A140G, 0.12.
In the case of U26C A78G U119C it was 2.04; in that of U26C U46C A57G U100A C123U, 1.08; in that of U29C U45C U87C, 1.31.
As for U29C A50G C84G U91C, the self-cleavage amounted to 0.38.
In the case of U29C A64U A107G U108G it was 1.53.
In the case of U26C G35U U73C U87A A142G it was 0.09; in that of U26C U96C U134C A136U, 0.1; in that of U26A U62G A124G A129U, 0.15.
In the case of U26A C56U A69G it was 0.07; in that of U26C U46C U102C, 0.35.
U26C A92U U112A: the self-cleavage is 1.15.
On to U26A G54A U96C U109C, for which the self-cleavage is 0.08.
In the case of U26A U81C U87A U104A A124G it was 0.12; in that of U26C U45C U52A A79G, 0.92.
In the case of U26G U29A U132C it was 1.4; in that of U26C U102A A140G, 1.35; in that of U29A U109C U130A, 1.67.
Turning to U26A U39A U102C U134A, the self-cleavage amounted to 2.12.
In the case of U26C A77G U96G U100A C123U it was 0.
In the case of U26C U39C G44U U62C it was 0.19; in that of U26C A117U A141G, 0.71.
In the case of U29C A50G G54U G72A it was 0.42; in that of U26A U62A U73C, 0.09; in that of U26G U96C U112A, 0.42.
Regarding U26A U100C A107G A124U, the self-cleavage was 1.7.
In the case of U26C U39C G89C A92G U108G it was 0; in that of U26A A30U U73A, 0.7; in that of U26C U62C U87A C110U, 0.08.
In the case of U26A U47A U100C it was 0.38; in that of U26C A65U U109C U134C, 0; in that of U29C A67U U132C, 0.35.
In the case of U26A U52A U81A U87C it was 0.21; in that of U26A A77U G83A, 0.46.
As to U26C U46C C111U U112C, the self-cleavage was determined as 1.28.
In the case of U26C U62C G97A it was 0.02; in that of U29C G33A U85C U132A, 0.23; in that of G27A A57G A65G A78G U109A, 0.
Turning to U26C G32U U47A U73A, the self-cleavage amounted to 1.49.
In the case of C28U U96A U100C U109A C113U it was 0.04; in that of U29C A64U U91A, 0.15.
In the case of U26A A42G A79G U81A it was 1.65; in that of U26A U73G U96C U130A, 0.
In the case of U26C U47G A78G A94U it was 0.28.
Consider U26G G33U U39C C63U A77G U96C, for which the self-cleavage worked out at 0.1.
In the case of G27C A43G A64G U115A it was 0.3.
